# Assay results from PubChem BioAssay AID504333 (National Center for Advancing Translational Sciences (NCATS), 2011).
# Among all 360,000 compounds or so, about 16,000 (4.4%) were called active. The inconclusive results got no clear call from the source; some entries with a clear call stand among them for comparison. Calls follow the shape of the dose curve; as a rule, active = well fitted inhibition curve with a large enough effect; inconclusive = small, poorly fitted or top-dose-only effect; inactive = no such curve, though single readings can be large or run the other way. Potencies of inconclusive entries are doubtful fits and often do not repeat.
# Biological target: Bromodomain adjacent to zinc finger domain protein 2B (Homo sapiens) (UniProt Q9UIF8)
# Chain of UniProt Q9UIF8 (Q9UIF8 whole entry, looked up, the tested form may be a part): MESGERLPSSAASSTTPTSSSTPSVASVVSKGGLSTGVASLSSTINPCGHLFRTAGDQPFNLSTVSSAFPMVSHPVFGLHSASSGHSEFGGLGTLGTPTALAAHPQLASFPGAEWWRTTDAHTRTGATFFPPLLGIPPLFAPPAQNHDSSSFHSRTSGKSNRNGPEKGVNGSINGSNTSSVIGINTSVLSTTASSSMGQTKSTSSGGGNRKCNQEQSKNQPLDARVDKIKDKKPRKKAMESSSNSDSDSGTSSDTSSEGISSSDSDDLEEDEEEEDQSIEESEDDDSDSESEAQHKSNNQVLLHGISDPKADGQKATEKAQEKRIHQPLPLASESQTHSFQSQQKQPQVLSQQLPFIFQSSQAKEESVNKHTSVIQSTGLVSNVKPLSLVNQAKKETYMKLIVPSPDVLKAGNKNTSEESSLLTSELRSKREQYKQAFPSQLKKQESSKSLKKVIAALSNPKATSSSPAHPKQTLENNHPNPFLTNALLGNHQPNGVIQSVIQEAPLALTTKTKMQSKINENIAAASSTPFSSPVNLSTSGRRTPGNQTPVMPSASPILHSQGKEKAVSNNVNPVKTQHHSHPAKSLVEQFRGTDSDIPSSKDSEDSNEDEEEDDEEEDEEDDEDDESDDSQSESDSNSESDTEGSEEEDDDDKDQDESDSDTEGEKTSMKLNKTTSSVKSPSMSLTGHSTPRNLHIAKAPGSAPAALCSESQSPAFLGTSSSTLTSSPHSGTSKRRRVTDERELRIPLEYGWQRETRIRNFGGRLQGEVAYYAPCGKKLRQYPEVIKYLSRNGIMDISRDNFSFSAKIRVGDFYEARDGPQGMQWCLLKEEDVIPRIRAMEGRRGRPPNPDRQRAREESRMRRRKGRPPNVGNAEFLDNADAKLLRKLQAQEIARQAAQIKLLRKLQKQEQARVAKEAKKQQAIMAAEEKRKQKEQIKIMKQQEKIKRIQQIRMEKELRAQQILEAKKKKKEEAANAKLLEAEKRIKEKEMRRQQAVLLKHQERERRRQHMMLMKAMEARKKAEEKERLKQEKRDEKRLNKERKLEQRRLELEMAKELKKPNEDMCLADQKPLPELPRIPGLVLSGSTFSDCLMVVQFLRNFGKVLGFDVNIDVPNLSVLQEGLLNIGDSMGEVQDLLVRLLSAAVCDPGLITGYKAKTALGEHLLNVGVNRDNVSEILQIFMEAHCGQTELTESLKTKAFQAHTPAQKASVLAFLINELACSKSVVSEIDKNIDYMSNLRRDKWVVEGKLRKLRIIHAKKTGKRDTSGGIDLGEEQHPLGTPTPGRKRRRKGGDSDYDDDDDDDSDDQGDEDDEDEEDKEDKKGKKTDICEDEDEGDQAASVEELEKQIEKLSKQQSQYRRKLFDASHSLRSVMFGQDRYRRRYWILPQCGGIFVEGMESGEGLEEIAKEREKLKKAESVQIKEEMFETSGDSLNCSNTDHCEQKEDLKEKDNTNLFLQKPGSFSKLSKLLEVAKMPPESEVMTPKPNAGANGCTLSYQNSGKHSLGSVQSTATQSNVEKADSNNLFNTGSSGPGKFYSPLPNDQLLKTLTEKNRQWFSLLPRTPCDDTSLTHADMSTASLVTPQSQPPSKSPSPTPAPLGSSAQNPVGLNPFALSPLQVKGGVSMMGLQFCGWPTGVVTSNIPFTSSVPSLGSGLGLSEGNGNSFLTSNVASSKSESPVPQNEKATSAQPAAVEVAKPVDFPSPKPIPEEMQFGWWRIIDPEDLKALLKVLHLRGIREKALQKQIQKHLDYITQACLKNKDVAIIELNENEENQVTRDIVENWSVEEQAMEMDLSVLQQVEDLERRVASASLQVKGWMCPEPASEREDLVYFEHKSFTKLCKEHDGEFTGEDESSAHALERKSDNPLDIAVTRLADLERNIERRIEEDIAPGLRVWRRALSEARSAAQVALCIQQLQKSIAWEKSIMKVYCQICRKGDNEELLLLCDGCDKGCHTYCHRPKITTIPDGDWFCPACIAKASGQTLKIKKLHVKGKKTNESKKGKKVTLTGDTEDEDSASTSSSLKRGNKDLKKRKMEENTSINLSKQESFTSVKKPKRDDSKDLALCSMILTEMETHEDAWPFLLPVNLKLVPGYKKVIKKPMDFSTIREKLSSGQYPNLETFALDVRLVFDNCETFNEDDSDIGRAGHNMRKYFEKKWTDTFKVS
# Assay: qHTS Assay for Inhibitors of BAZ2B; also: nearly all actives have a fitted effect of over 60% in size
# Details: AlphaScreen BAZ2B-H3K14Ac peptide displacement; series mostly up to 114 µM
# Outline: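 Multi-concentration screen (max 110 uM) measuring displacement of acetylated histone H3 peptide from BAZ2B by AlphaScreen, using 50 nM protein, 50 nM peptide and 10 ug/mL streptavidin donor plus Ni-chelate acceptor beads.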
# Potency is read from the fitted curve at half-maximal effect; tags tell the direction and shape of the fitted curve.
row,Structure (SMILES),Potency
1,O=C(Nc1ncn[nH]1)c1ccc(Cl)c(S(=O)(=O)N2CCCCCC2)c1,"inconclusive: 89.1 µM [inhibitor, single point]"
2,CC(C)CCNC(=O)C(=O)Nc1ccccc1,inactive
3,CC(=O)c1ccc(Sc2ccccc2N)c([N+](=O)[O-])c1,"inconclusive: 50.1 µM [inhibitor, partial curve]"
4,Cc1cccc(NC(=O)c2cccc(N3C(=O)C4C5CCC(C5)C4C3=O)c2)c1C (stereo unspecified),"inconclusive: 89.1 µM [inhibitor, single point]"
5,C/C(=N\NC1=N[C@H]2CS(=O)(=O)C[C@H]2S1)c1ccccc1,"inconclusive: 89.1 µM [inhibitor, single point]"
6,CCCCCC(=O)Nc1cccc(C2=NOC3(C2)C[C@H](C(N)=O)N(C(=O)c2ccccc2)C3)c1 (stereo partly specified),inactive
7,COc1cc(-c2nc3c(c(C)nn3-c3ccccc3)c3cc(OC)c(OC)cc23)ccc1O,inactive
8,O=C(CSc1oc(-c2cccs2)nc1S(=O)(=O)c1ccccc1)NC1CCCCC1,inactive
9,CCCCNC(=S)N1CCN(C)CC1,active: 39.8 µM
10,Cc1ccc(N(CC(=O)NCCSCc2ccco2)S(C)(=O)=O)cc1,"inconclusive: 89.1 µM [inhibitor, single point]"
11,COc1cc(C2/C(=C(\O)c3ccc4c(c3)CC(C)O4)C(=O)C(=O)N2CC2CCCO2)cc(OC)c1OC (stereo unspecified),"inconclusive: 56.2 µM [inhibitor, partial curve, poor fit]"
12,COC(=O)c1sc(=S)n(-c2cc(F)ccc2F)c1N,active: 56.2 µM
13,CCOc1ccc(C(=O)Nc2cccc(-c3nc4cc(Cl)cc(Cl)c4o3)c2)cc1,inactive
14,COc1ccc(OC)c(C(=O)COC(=O)c2cccnc2Cl)c1,inactive
15,O=C(Nc1nc2ccccc2n1CCN1CCOCC1)c1cn(-c2ccccc2)nc1-c1ccccc1,"inconclusive: 28.2 µM [inhibitor, full curve, poor fit]"
16,COc1ccc(CNc2nc(NCc3ccc(OC)cc3)n(C(=O)c3ccncc3)n2)cc1,"inconclusive: 44.7 µM [inhibitor, partial curve]"
17,O=C(O)CC1S/C(=N/N=C/C=C/c2ccccc2)NC1=O (stereo unspecified),active: 79.4 µM
18,Oc1ccc(-c2cn3ccccc3n2)cc1,inactive
19,CCOc1ccc(NC(=S)N(Cc2ccc(Cl)cc2)Cc2ccco2)cc1,"inconclusive: 79.4 µM [inhibitor, single point]"
20,O=C(Nc1ccc(N2CCOCC2)cc1)c1cc2c(s1)CCCCC2,"inconclusive: 44.7 µM [inhibitor, partial curve]"
21,CC(C)CC1NC(=O)N(CC(=O)Nc2ccc3c(c2)OCCO3)C1=O (stereo unspecified),inactive
22,Fc1ccc(Nc2nc(NCc3ccco3)c3ccccc3n2)cc1,"inconclusive: 35.5 µM [inhibitor, partial curve]"
23,CCOC(=O)C(=O)N=Nc1c(O)n(C)c2ccccc12,inactive

row,Structure (SMILES),Potency
1,CCOc1[nH]n(-c2ccccc2)c(=O)c1C=Nc1ccc(C)cc1,"inconclusive: 79.4 µM [inhibitor, single point]"
2,N#C/C(=C\c1ccc(Cl)cc1Cl)c1nc(-c2cccc(Cl)c2)cs1,inactive
3,COc1cc(CNCc2cc(OC)c(OC)c(OC)c2)cc(OC)c1,"inconclusive: 79.4 µM [inhibitor, single point]"
4,O=C(O)C(=O)Cc1c[nH]c2ccccc12,"inconclusive: 79.4 µM [inhibitor, single point]"
5,O=P(OC1CCCCC1)(OC1CCCCC1)C(Nc1ccccc1)c1cccnc1 (stereo unspecified),"inconclusive: 70.8 µM [inhibitor, partial curve]"
6,Cc1nnc(SCCn2c(N3CCC(Cc4ccccc4)CC3)nc3c2c(=O)[nH]c(=O)n3C)s1,"inconclusive: 89.1 µM [inhibitor, single point]"
7,N=C1/C(=C\c2coc3ccccc3c2=O)C(=O)N=C2SC(c3ccncc3)=NN12,"inconclusive: 89.1 µM [inhibitor, single point]"
8,COc1ccc(N=CC2=C(O)c3ccccc3C2=O)c(OC)c1,"inconclusive: 50.1 µM [inhibitor, partial curve]"
9,CC(C)=CCc1c(O)ccc2c1OC(c1ccc(O)c(O)c1)CC2=O (stereo unspecified),"inconclusive: 50.1 µM [inhibitor, partial curve]"
10,Cc1ccc(C(C)NC(=O)COC(=O)C2=COCCO2)cc1C (stereo unspecified),inactive
11,C/C(=N/NC(=O)c1sc(NS(=O)(=O)c2ccccc2)nc1C)c1sc(N)nc1C,"inconclusive: 70.8 µM [inhibitor, partial curve]"
12,CCc1ccccc1NC(=O)CN1C(=O)c2ccccc2Sc2ncccc21,"inconclusive: 79.4 µM [inhibitor, single point]"
13,O=C(c1cccnc1)N1CCN(Cc2cccc(F)c2)CC1,active: 31.6 µM
14,NC(=O)CN(C/C=C/c1ccccc1)C/C=C/c1ccccc1,"inconclusive: 79.4 µM [inhibitor, single point]"
15,Cc1cc(C)cc(NC(=S)NCCc2c[nH]c3ccccc23)c1,active: 28.2 µM
16,O=C(COC(=O)c1ccc(S(=O)(=O)N2CCCC2)cc1)Nc1cccc(Cl)c1,inactive
17,CCN(CC)CCN1C(=O)C(=O)/C(=C(/O)c2cccc(OC)c2)C1c1ccccn1 (stereo unspecified),"inconclusive: 89.1 µM [inhibitor, single point]"
18,Cc1cc(=O)[nH]c(CN2CCC(c3ccccc3)CC2)n1,"inconclusive: 89.1 µM [inhibitor, single point]"
19,O=C(N/N=C/c1cccnc1)c1ccc2ccccc2c1O,"inconclusive: 79.4 µM [inhibitor, single point]"
20,CC(=O)N1CCc2ccccc2C1CC(=O)O (stereo unspecified),"inconclusive: 89.1 µM [inhibitor, single point]"
21,CC(=O)Nc1ccc(S(=O)(=O)Nc2nc3ccccc3nc2N2CCc3ccccc3C2)cc1,inactive
22,O=C(C1CCCN(S(=O)(=O)c2cccc3nsnc23)C1)N1CC=C(c2ccccc2)CC1 (stereo unspecified),"inconclusive: 89.1 µM [inhibitor, single point]"
23,CCOc1ccc(C(=O)Nc2cccc(C)n2)cc1,inactive
